Measured values from PubChem BioAssay AID2147 (National Center for Advancing Translational Sciences (NCATS), 2009).
“And” between values parts separate entries of the source, which are not always exact repeats. Identical values can stand only once. About 3,600 (1.6%) of roughly 230,000 compounds were called active. The inconclusive results got no clear call from the source; some entries with a clear call stand among them for comparison. The call rests on the fitted dose curve; in most records, active means well fitted inhibition curve with a large enough effect (not every such curve was filed as active); inconclusive means small, poorly fitted or top-dose-only effect, or another doubt; inactive means no such curve, though single readings can be large or run the other way. Potencies beside an inconclusive call are fits to weak or partial responses and may not hold up.

Each compound was assayed against Lysine-specific demethylase 4E (Homo sapiens) (UniProt B2RXH2) (assay: qHTS Assay for Inhibitors of Human Jumonji Domain Containing 2E (JMJD2E)). Conditions: JMJD2E catalytic domain, FDH-coupled NADH fluorescence (FDH is formaldehyde dehydrogenase); series mostly up to 57.1 µM.
Sequence of UniProt B2RXH2 (B2RXH2 whole entry, looked up, the tested form may be a part): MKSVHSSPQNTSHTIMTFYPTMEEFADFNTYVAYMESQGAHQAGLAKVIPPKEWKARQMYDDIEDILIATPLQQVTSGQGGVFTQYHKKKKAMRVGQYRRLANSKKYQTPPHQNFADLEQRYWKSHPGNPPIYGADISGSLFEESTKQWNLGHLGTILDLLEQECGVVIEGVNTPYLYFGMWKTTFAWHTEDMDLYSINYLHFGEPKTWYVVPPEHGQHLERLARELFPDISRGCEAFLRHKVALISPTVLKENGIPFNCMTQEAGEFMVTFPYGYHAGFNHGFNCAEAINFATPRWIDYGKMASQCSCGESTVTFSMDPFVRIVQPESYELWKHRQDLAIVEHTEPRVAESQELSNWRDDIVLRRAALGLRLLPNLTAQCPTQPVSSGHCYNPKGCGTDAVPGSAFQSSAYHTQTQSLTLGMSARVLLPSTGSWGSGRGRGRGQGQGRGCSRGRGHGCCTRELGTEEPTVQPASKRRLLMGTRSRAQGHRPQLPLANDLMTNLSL
Further: nearly all actives have a fitted effect of over 50% in size.
Potency means the concentration at half of the fitted maximal effect; tags describe the fitted curve by direction and shape.

Structure (SMILES)	Potency
CN1CCN(C(c2cccc(Cl)c2)c2ccccc2Cl)CC1 (centres undefined)	inconclusive: 35.5 µM [inhibitor, single point]
CCC(=O)/C=C1/Sc2ccccc2N1CC	inactive
COc1ccc(/C=N/NC(=O)c2cc(Br)ccc2O)cc1Cn1cc(Cl)cn1	inconclusive: 35.5 µM [inhibitor, single point]
CC(=O)c1ccc(NC(=O)COc2ccccc2C(=O)Nc2ccc(C)cn2)cc1	inconclusive: 39.8 µM [inhibitor, single point]
COc1ccc(OC)c(Nc2nc(N)nc(-c3cc4ccccc4o3)n2)c1	inconclusive: 25.1 µM [inhibitor, partial curve]
CN(Cc1ccccc1)C(=O)COC(=O)c1ccc(Cl)cc1N	inconclusive: 35.5 µM [inhibitor, partial curve]
Cc1cc(OCCCC(=O)N2CCCCC2)cc(C)c1Cl	inactive
O=C(c1ccc(CSCc2ccccc2F)o1)N1CCN(c2ccc(N3CCOCC3)nn2)CC1	inconclusive: 31.6 µM [inhibitor, partial curve]
NNC(=O)c1ccc(Cn2cccn2)o1	inactive
COc1ccc(-n2nc([N+](=O)[O-])c(=NCc3cccnc3)n2O)cc1	inactive
Cc1cc(N2CCN(S(=O)(=O)c3ccc4ccccc4c3)CC2)n2ncnc2n1	inconclusive: 3.55 µM [inhibitor, full curve]
COc1ccccc1N1CCN(c2cc(=O)n(-c3ccc(Cl)cc3)c(=O)[nH]2)CC1	inconclusive: 39.8 µM [inhibitor, single point]
CC1(C)CC2CC(C)(CN2CC(=O)C(C#N)c2ccccc2)C1 (centres undefined)	inactive
Cc1ccc2nc(SCC(=O)N(CC(C)C)c3c(N)n(CC(C)C)c(=O)[nH]c3=O)[nH]c2c1	inconclusive: 39.8 µM [inhibitor, single point]
FC(F)(F)c1cccc(-c2nc3nc(Cl)c(Cl)nc3[nH]2)c1	inconclusive: 25.1 µM [inhibitor, partial curve]
O=C(N/N=C/c1cn(-c2ccccc2)nc1-c1ccc(F)cc1)c1ccc(Br)o1	inconclusive: 28.2 µM [inhibitor, single point]
COc1ccc(N2C(=O)[C@@H]3[C@H](C2=O)[C@H](C(=O)c2ccc(OC(C)=O)cc2)N2N=CC=C[C@@H]32)cc1	inactive
COc1cc(/C=C2\Oc3cc(O)ccc3C2=O)ccc1O	inconclusive: 25.1 µM [inhibitor, single point]
COc1cccc(/C=C/c2nc3c(cnn3-c3ccccc3)c(=O)[nH]2)c1	inconclusive: 3.16 µM [inhibitor, partial curve]
C(=N\Nc1nc(N2CCCCCC2)nc(N2CCCCCC2)n1)/c1ccccc1	inactive
Cc1ccccc1CSCCNC(=O)c1ccccc1	inactive
Cc1cccc(N2CCN(C(=S)Nc3ccc4nc(N5CCN(C)CC5)cc(C)c4c3)CC2C)c1 (centres undefined)	inconclusive: 31.6 µM [inhibitor, partial curve]
Fc1ccc(-c2cc(C(F)(F)F)nc(-n3cc(Cl)cn3)n2)cc1	inconclusive: 31.6 µM [inhibitor, single point]
O=C(O)CCCC(=O)Nc1ccc(Br)cc1C(=O)O	inconclusive: 39.8 µM [inhibitor, single point]
CCCOc1ccccc1-c1nc2c([nH]1)c(=O)[nH]c(=O)n2C	inconclusive: 28.2 µM [inhibitor, partial curve]

Structure (SMILES)	Potency
COc1ccc(CC(=O)NCc2csc(-c3cccs3)n2)cc1OC	inconclusive: 28.2 µM [inhibitor, single point]
COc1ccc(-c2coc3cc(O)ccc3c2=O)cc1O	inconclusive: 35.5 µM [inhibitor, single point]
Cc1ncc([N+](=O)[O-])n1Cc1ccccc1	inactive
COc1ccc(S(=O)(=O)NCCC(=O)NCc2cccs2)cc1	inactive
O=C(Nc1ccc2c(c1)Cc1ccccc1-2)c1ccncc1	inconclusive: 35.5 µM [inhibitor, single point]
COCCNC(=O)c1cc2c(=O)n3cccc(C)c3nc2n1C	inconclusive: 7.94 µM [inhibitor, full curve]
CCOC(=O)CSc1n[nH]c(=S)s1	active: 10 µM
Nc1nc(N2CCN(C/C=C/c3ccccc3)CC2)nc2ccccc12	inconclusive: 28.2 µM [inhibitor, partial curve]
CCCCCOC(=O)CSc1n[nH]c(=O)[nH]c1=O	inactive
CC(C)C(=O)N1CCN(c2nc(-c3ccccc3)c3c(c2C#N)CC(C)(C)OC3)CC1	inconclusive: 28.2 µM [inhibitor, partial curve]
Cc1cc(CNC(=S)Nc2cccc(Cl)c2Cl)nn1C	inactive
CC(=O)Nc1cccc(C(=O)/C=C/c2ccc(C)cc2)c1	inactive
Cc1ccc(C=Nc2ccccc2C(N)=O)s1	inconclusive: 31.6 µM [inhibitor, partial curve]
CSCCC(NC(=O)c1ccc(Cl)cc1)C(=O)OCC(=O)Nc1cc(Cl)ccc1C#N (centres undefined)	inconclusive: 39.8 µM [inhibitor, single point]
Cc1cccc(N2C(N)=C(C#N)C(C#N)(C#N)C2c2ccccc2)c1 (centres undefined)	inconclusive: 35.5 µM [inhibitor, partial curve]
COc1ccc(CNC(=O)C(=O)NCC2OCCN2S(=O)(=O)c2ccc3c(c2)OCCO3)cc1 (centres undefined)	inactive
CCOC(=O)C1(Cc2ccccc2)CCN(C2Cc3ccccc3C2)CC1	inactive
Cc1ccc(S(=O)(=O)Nc2nsc(N)n2)cc1	inactive
CC(=O)Nc1ccc(NC(=O)C2CCCN2/C=C/C(=O)C(F)(F)F)cc1 (centres undefined)	inactive
C/C=C(/C)C(=O)OC1c2c(ccc3ccc(=O)oc23)OC(C)(C)C1OC(=O)/C(C)=C\C (centres undefined)	inconclusive: 35.5 µM [inhibitor, single point]
CCOC(=O)NC(=O)c1cn(N(C)c2ncc(C(F)(F)F)cc2Cl)c(=O)[nH]c1=O	inconclusive: 39.8 µM [inhibitor, single point]
Cc1ccc2nc(NCc3ccccc3)c(C#N)cc2c1	inconclusive: 28.2 µM [inhibitor, partial curve]
Cc1ccc(NCc2ccc(Cl)nc2)c(NCc2ccc(Cl)nc2)c1	inconclusive: 31.6 µM [inhibitor, single point]
COc1cc(/C=C2/NC(=O)N(Cc3ccccc3F)C2=O)cc(OC)c1O	inconclusive: 31.6 µM [inhibitor, partial curve]
COc1ccc(/C=C2/SC(=S)N(CCC(=O)O)C2=O)cc1	inactive

Structure (SMILES)	Potency
O=C(N/N=C/c1c(O)ccc2ccccc12)c1[nH]ncc1Br	active: 31.6 µM
Cc1nn2c(=S)[nH]nc2[nH]c1=O	inconclusive: 35.5 µM [inhibitor, single point]
O=C1CC(c2ccco2)CC(O)=C1C=NCC1NCCc2ccccc21 (centres undefined)	active: 20 µM
C=CCN(CC=C)CCOc1cccc2ccccc12	inconclusive: 25.1 µM [inhibitor, single point]
COc1ccc(CCNC(=O)c2cc3c(=O)n4cccc(C)c4nc3n(Cc3ccncc3)c2=N)cc1	inconclusive: 31.6 µM [inhibitor, partial curve]
Cc1nn(-c2ccccc2)c(N2CCCC2)c1/C=N/Nc1ccc(S(N)(=O)=O)cc1[N+](=O)[O-]	inactive
c1ccc(-c2ccccc2OCCCN2CCOCC2)cc1	inactive
CCCN(CCC)c1ccc(/C=N/NC(=O)CN2CCOCC2)cc1	inconclusive: 25.1 µM [inhibitor, partial curve]
Cc1ccc(C(=O)Oc2coc(CSc3nnc(NC(=O)c4cccs4)s3)cc2=O)cc1	inconclusive: 22.4 µM [inhibitor, partial curve]
COc1cccc(-c2nc(-c3ccc4c(c3)-c3ccccc3S4(=O)=O)c(-c3ccccc3)[nH]2)c1OC	inconclusive: 22.4 µM [inhibitor, partial curve]
CC(=O)Nc1ccc(-c2csc(NC(=O)CCCc3cccs3)n2)cc1	inconclusive: 28.2 µM [inhibitor, partial curve]
S=C(NCC1CCCO1)Nc1ccc(Cl)cc1 (centres undefined)	inactive
COC(=O)C(N)Cc1ccc(OC)c([N+](=O)[O-])c1 (centres undefined)	inactive
CN(CCCNC(=O)c1cc2c(Cl)nc3ccccc3c2s1)Cc1ccccc1	inactive
NNC(=O)c1nn(-c2ccccc2)cc1O	inactive
CC1CCCN(C(=O)C2CCN(S(=O)(=O)c3cccc4cccnc34)CC2)C1 (centres undefined)	inactive
CCOc1cc(/C=C2\C(=O)N(c3cccc(C(F)(F)F)c3)C(=O)c3ccccc32)ccc1O	inconclusive: 39.8 µM [inhibitor, single point]
Cn1c(=O)c([N+](=O)[O-])c(NCc2ccccc2)c2ccccc21	inactive
Cc1nn(C)cc1C1Nc2ccccc2C(=O)N1O (centres undefined)	inconclusive: 39.8 µM [inhibitor, single point]
CC1(C)C=Cc2cc3ccc(=O)oc3cc2O1	inconclusive: 31.6 µM [inhibitor, partial curve] and inconclusive: 28.2 µM [inhibitor, partial curve]
COC(=O)Nc1nnc(-c2ccco2)s1	inconclusive: 35.5 µM [inhibitor, partial curve]
CCOC(=O)c1ccc(-n2c(N)c(C(=O)NCC3CCCO3)sc2=S)cc1 (centres undefined)	inactive
CCN1CCCC1CN(Cc1cc2ccc(C)cc2[nH]c1=O)C(=S)Nc1ccccc1OC (centres undefined)	inactive
CN(C)Cc1cc(O)c(CN(C)C)cc1O	inconclusive: 0.891 µM [inhibitor, partial curve]
